Test results as given in publication PMC9975351.

Substrate: Cc1ccc(N)cc1C(=O)N[C@H](C)c1cccc2ccccc12
Assay: not read
Settings: recombinant CYP3A4, 10 min, 95% CI in parentheses, pH 7.4, 37.0 °C

B1: CYP3A4 (Homo sapiens) (protein)
chain: MALIPDLAMETWLLLAVSLVLLYLYGTHSHGLFKKLGIPGPTPLPFLGNILSYHKGFCMFDMECHKKYGKVWGFYDGQQPVLAITDPDMIKTVLVKECYSVFTNRRPFGPVGFMKSAISIAEDEEWKRLRSLLSPTFTSGKLKEMVPIIAQYGDVLVRNLRREAETGKPVTLKDVFGAYSMDVITSTSFGVNIDSLNNPQDPFVENTKKLLRFDFLDPFFLSITVFPFLIPILEVLNICVFPREVTNFLRKSVKRMKESRLEDTQKHRVDFLQLMIDSQNSKETESHKALSDLELVAQSIIFIFAGYETTSSVLSFIMYELATHPDVQQKLQEEIDAVLPNKAPPTYDTVLQMEYLDMVVNETLRLFPIAMRLERVCKKDVEINGMFIPKGVVVMIPSYALHRDPKYWTEPEKFLPERFSKKNKDNIDPYIYTPFGSGPRNCIGMRFALMNMKLALIRVLQNFSFKPCKETQIPLKLSLGGLLQPEKPVVLKVESRDGTVSGA
For B1, the Km (other: M1 formation) was 18.2 (14.8–22.7) µM and the Km (other: M3 formation) was 14.8 (12.3–18.0) µM.
